In all, about 110,000 compounds were measured (“z-score”: median about -0.1, highest 2% from about 2 on). This is one part of the list. The source made the active and inactive calls.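 How the source made its calls: active means z-score in the third read window above 3 or below -3; inactive means the rest.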
Biological target: Metabotropic glutamate receptor 8 (Rattus norvegicus) (UniProt P70579)
Experiment: rat mGluR8 modulators via GIRK flux, primary screen, cell-based, thallium flux, HTS (AID 488969)
Details: HEK293 rat mGluR8, GIRK (G protein-gated inwardly rectifying potassium channel) thallium flux, FluoZin2; at 10 µM; stronger effect = higher value; submaximal glutamate (EC20) added with thallium

Chain of UniProt P70579 (P70579 whole entry, looked up): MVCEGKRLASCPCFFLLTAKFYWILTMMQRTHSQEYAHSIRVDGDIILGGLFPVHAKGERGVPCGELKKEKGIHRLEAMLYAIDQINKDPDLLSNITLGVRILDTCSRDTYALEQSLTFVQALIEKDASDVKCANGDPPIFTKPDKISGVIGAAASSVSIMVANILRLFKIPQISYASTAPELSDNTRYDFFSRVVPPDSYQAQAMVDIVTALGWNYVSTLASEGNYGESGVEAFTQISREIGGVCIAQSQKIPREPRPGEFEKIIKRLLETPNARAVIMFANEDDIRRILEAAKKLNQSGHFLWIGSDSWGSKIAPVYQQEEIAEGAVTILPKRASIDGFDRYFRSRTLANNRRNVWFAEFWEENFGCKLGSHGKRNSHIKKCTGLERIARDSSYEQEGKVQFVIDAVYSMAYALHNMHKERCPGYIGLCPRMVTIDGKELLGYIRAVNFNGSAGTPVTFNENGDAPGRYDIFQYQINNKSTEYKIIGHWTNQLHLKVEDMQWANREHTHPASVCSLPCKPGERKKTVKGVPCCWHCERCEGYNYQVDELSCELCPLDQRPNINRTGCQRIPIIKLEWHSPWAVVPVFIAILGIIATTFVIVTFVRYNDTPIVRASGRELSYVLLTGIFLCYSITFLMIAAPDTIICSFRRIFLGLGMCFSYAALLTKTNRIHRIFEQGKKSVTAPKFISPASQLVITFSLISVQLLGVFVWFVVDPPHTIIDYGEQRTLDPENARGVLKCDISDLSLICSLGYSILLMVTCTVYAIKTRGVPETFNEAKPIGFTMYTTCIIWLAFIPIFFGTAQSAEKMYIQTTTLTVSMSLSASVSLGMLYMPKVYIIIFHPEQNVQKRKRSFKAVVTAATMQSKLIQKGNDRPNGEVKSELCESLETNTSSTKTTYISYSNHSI

| SMILES | z-score |
| --- | --- |
| N/C(=N\OC(=O)c1cccc2ccccc12)c1cccc([N+](=O)[O-])c1 | -0.385 |
| COC(=O)C1C(=O)c2c([nH]c(C(=O)OCCSC)c2C)CC1C (stereo unspecified) | -0.462 |
| CN(C)C(=S)Nn1c(-c2ccccc2)nc2ccccc2c1=O | -0.411 |
| CCOc1ccccc1N1CC(O)=C(c2nc3ccccc3s2)C1=N | -0.959 |
| Cc1ccc(N2C(=O)c3ccc(C(=O)O)cc3C2=O)c(C)c1 | -0.0255 |
| O=C(Cc1ccccc1)Nc1nnc(-c2cccs2)s1 | 0.154 |
| O=Nc1c(O)n(Cc2ccc(Cl)cc2)c2ccccc12 | -0.434 |
| COc1ccccc1OCC(=O)OCC(=O)NCCN1C(=O)CSC1=O | 0.0192 |
| CN1CCN(C(c2cccnc2)c2ccc3cccnc3c2O)CC1 (stereo unspecified) | -0.253 |
| CN1/C(=C\C(=O)c2oc3ccccc3c2N)C(C)(C)c2ccccc21 | -0.447 |
| Cc1ncsc1C(=O)N1N=C2/C(=C/c3ccccc3)CCCC2C1c1ccccc1 (stereo unspecified) | -0.162 |
| Cc1ccc(OCCOCCn2cnc3ccccc3c2=O)c([N+](=O)[O-])c1 | -0.217 |
| CN(C)c1ccc(/C=C/c2cc[n+](C)cc2)cc1 | 1.25 |
| O=C(/C=C/c1ccc(Cl)cc1)NCCN1CCOCC1 | 0.246 |
| O=C1c2nc3ccccn3c2C(=O)N1Cc1ccccc1 | 0.737 |
| COc1ccc(NC(=O)/C(=C\c2cc(OC)c(OC)cc2[N+](=O)[O-])NC(=O)c2ccccc2)cc1 | -0.398 |
| Cn1ccs/c1=N\S(=O)(=O)c1ccc(Br)cc1 | 0.0436 |
| Nc1nonc1C(=O)NCCNCc1c(OCc2ccccc2F)ccc2ccccc12 | 0.681 |
| CC(C)c1ccc(-c2nnc(N)s2)cc1 | -0.324 |
| COc1ccc(N2CC(C)Cn3c2nc2c3c(=O)n(Cc3ccc(F)cc3)c(=O)n2C)c(OC)c1 (stereo unspecified) | 0.0317 |
| COc1ccc(C2/C(=C(\O)c3cccc(OC)c3)C(=O)C(=O)N2c2ccccn2)cc1 (stereo unspecified) | -0.28 |
| O=C(C1CCCN(S(=O)(=O)c2cnc[nH]2)C1)N(CCc1ccccc1)Cc1ccccc1 (stereo unspecified) | -0.416 |
| CCCc1nc2oc3c(OCC)ncnc3c2c2c1COC(C)(C)C2 | -0.236 |
| N=c1sccn1CC(=O)Nc1ccccc1Oc1ccccc1 | 0.312 |

| SMILES | z-score |
| --- | --- |
| CCCOc1ccc(N2CC(C(=O)Nc3ccccc3OC)CC2=O)cc1 (stereo unspecified) | -1.76 |
| CSCCC(NC(=O)c1ccoc1C)C(=O)O (stereo unspecified) | -0.0493 |
| CCN1CCN(C(c2ccccn2)c2c(NC(=O)c3ccccc3)sc(C)c2C)CC1 (stereo unspecified) | -0.436 |
| Nc1nc2ccccc2n1CCN1CCCC1 | -0.064 |
| C=CCC1(NC(C)c2ccccc2)CCCCC1 (stereo unspecified) | 1.5 |
| C/C(=N\NC(=O)CNC(=O)C(c1ccccc1)c1ccccc1)c1ccc(C(C)(C)C)cc1 | -0.148 |
| CCN1CCN(Cc2ccc(OCc3ccccc3)cc2)CC1 | 1.12 |
| C=CCn1c2ccccc2c2nnc(SCC(=O)Nc3cc(C)on3)nc21 | -0.3 |
| C=C(C)[C@H]1CC=C(C)/C(=N/NC(=O)CNc2ccccc2OC)C1 | 0.284 |
| CNC(=O)Cc1csc2ccc(Cl)cc12 | 0.0531 |
| c1csc(C(c2nnnn2C2CCCC2)N2CCCC3(CCCCC3)C2)c1 (stereo unspecified) | -0.124 |
| Cc1cc(C)cc(NS(=O)(=O)c2ccc(NC(=S)NC(=O)c3cccs3)cc2)c1 | 0.901 |
| Cc1ccc(C(=O)NC(=S)Nc2ccc3[nH]c(=O)[nH]c3c2)cc1 | 0.014 |
| CN(CCCCCCCCC(=O)/C=N/O)Cc1ccccc1 | 1.45 |
| COc1ccccc1N(C)S(=O)(=O)c1ccc(C(=O)NC2=NCCS2)cc1 | -0.404 |
| O=C(/C=C/c1ccoc1)c1ccccc1O | -0.0767 |
| COc1ccccc1-n1c(SCc2cc(=O)oc3cc(O)ccc23)nc2ccccc2c1=O | -0.26 |
| CC(C)=CCC(C)(C)CNC(=O)NC1CCCCC1 | 1.47 |
| O=C(COC(=O)CCc1nc2ccccc2s1)Nc1ccc(Cl)cn1 | -0.179 |
| CC(C)Sc1nc(N)nc(-c2cccs2)c1C#N | -1.07 |
| COC(=O)c1cccc(Oc2nc(N3CCOCC3)nc(N3CCOCC3)n2)c1 | -0.541 |
| O=c1c(-c2nnc(SCc3ccc(Cl)c(Cl)c3)o2)cccn1Cc1ccccc1 | -0.239 |
| CCc1ccc(-c2cc(C(F)(F)F)n3nc(C(=O)Nc4c(C)nn(Cc5ccccc5Cl)c4C)cc3n2)s1 | 1.14 |
| O=c1cc(-c2ccccc2)nc(N2CCN(Cc3ccc4c(c3)OCO4)CC2)[nH]1 | -0.255 |

| SMILES | z-score |
| --- | --- |
| COc1ccccc1C(=O)Nc1ccccn1 | 0.302 |
| CCCN(CCC)CCNC(=O)c1cc2c(=O)n(C)c3ccccc3c2n1C | 1.86 |
| Cc1cccc(CCNC(=O)CCc2c(C)nc3ncnn3c2C)c1 | 0.199 |
| CCCCCCCCn1cnc2c(N)c(C)c(C)cc21 | -0.287 |
| COc1ccc(NC(=O)NC23CC4(C)CC(C)(CC(C)(C4)C2)C3)cc1OC | -0.068 |
| O=C(C[n+]1cc2ccccc2c2ccccc21)c1ccccc1 | -0.107 |
| Cc1cc(C(=O)CSc2n[nH]c(N)n2)c(C)n1-c1ccccc1 | -0.321 |
| OC1(c2ccccc2)CN(c2ccccc2)C2=[N+]1CCS2 (stereo unspecified) | -0.308 |
| CCC(=O)N(CCC1(C(C)C)CCOC(C)(C)C1)Cc1ccco1 (stereo unspecified) | 0.0457 |
| Clc1cccc(OCCN2CCNCC2)c1 | -0.084 |
| CC1Cc2ccccc2N1C(=O)CSc1nc2ccccc2n1CC(=O)N1CCOCC1 (stereo unspecified) | 0.204 |
| O=C(Nc1cccc(C(=O)N2CCCCCC2)c1)c1ccco1 | -0.104 |
| COc1ccc(Cn2nnnc2C(c2ccc(F)cc2)N2CCN(C3CCCC3)CC2)cc1 (stereo unspecified) | active: 3.92 |
| O=C(NCC1(c2ccccc2)CCCC1)c1ccc(Br)cc1 | -0.348 |
| Cc1ccc(C(=O)/C=C/NCc2ccc(F)cc2)cc1 | 0.0722 |
| CCn1c2ccccc2c2cc(NC(=O)CSc3nnc(-c4cccc(C)c4)o3)ccc21 | -0.209 |
| COc1nc(-c2ccc(Cl)cc2)ccc1-c1noc(-c2cccs2)n1 | -0.0452 |
| COc1cccc(NC2=NC3(CCCCC3)N=C(N)N2)c1 | -0.198 |
| COC(=O)c1cc(NS(=O)(=O)c2ccc(NCc3cccnc3)c([N+](=O)[O-])c2)cc(C(=O)OC)c1 | -0.148 |
| Cc1csc(NC(=O)C2CCN(S(=O)(=O)c3ccc4c(c3)oc(=O)n4C)CC2)n1 | -0.126 |
| Cc1c(CC(=O)O)c(=O)oc2cc(OCc3nn[nH]n3)ccc12 | -0.0529 |
| O=C(C1c2ccccc2C(=O)N2CCc3ccccc3C12)N1CCN(Cc2ccccc2)CC1 (stereo unspecified) | -0.168 |
| O=C(N/N=C/C=C/c1ccccc1)c1cc2c(ccc3ccccc32)o1 | -0.171 |

From PubChem BioAssay AID488969 (Vanderbilt High Throughput Screening Facility, 2010)
